In paper PMC9911399, “Two distinct binding modes provide the RNA-binding protein RbFox with extraordinary sequence specificity”:
Positions count from the first letter of the chain named. Some of the results follow.

T1: RBFOX1 RRM RbFoxmut (Fox-RRM*) (Homo sapiens, UniProt Q9NWB1 109-208, R118D;E147R;N151S;E152T)
T1 sequence: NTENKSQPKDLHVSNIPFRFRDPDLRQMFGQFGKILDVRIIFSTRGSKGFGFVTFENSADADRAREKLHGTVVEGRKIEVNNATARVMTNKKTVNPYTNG

B1: UUAUGUU (DNA:RNA)
RNA: GGGAGACCGGAAUUCAGAUUGUCCUUAUGUUUUAAAUCCCGUCGUAGCCACCA
DNA 1: CAATCTGAATTCCGGTCTCCC
DNA 2: TGGTGGCTACGACGGGATT
B2: GCGAGUU (DNA:RNA)
RNA: B1 RNA with U25G, U26C, A27G, U28A
DNA 1: CAATCTGAATTCCGGTCTCCC
DNA 2: TGGTGGCTACGACGGGATT
B3: AGUUCUG (DNA:RNA)
RNA: B1 RNA with U25A, U26G, A27U, G29C, U31G
DNA 1: CAATCTGAATTCCGGTCTCCC
DNA 2: TGGTGGCTACGACGGGATT
B4: CAUUUGG (DNA:RNA)
RNA: B1 RNA with U25C, U26A, A27U, G29U, U30G, U31G
DNA 1: CAATCTGAATTCCGGTCTCCC
DNA 2: TGGTGGCTACGACGGGATT
B5: UUUGAGA (DNA:RNA)
RNA: B1 RNA with A27U, U28G, G29A, U30G, U31A
DNA 1: CAATCTGAATTCCGGTCTCCC
DNA 2: TGGTGGCTACGACGGGATT
B6: UUGCCCU (DNA:RNA)
RNA: B1 RNA with A27G, U28C, G29C, U30C
DNA 1: CAATCTGAATTCCGGTCTCCC
DNA 2: TGGTGGCTACGACGGGATT
B7: GGCUAUU (DNA:RNA)
RNA: B1 RNA with U25G, U26G, A27C, G29A
DNA 1: CAATCTGAATTCCGGTCTCCC
DNA 2: TGGTGGCTACGACGGGATT
B8: GGGAUCG (DNA:RNA)
RNA: GGGAGACCGGAAUUCAGAUUGUCCGGGAUCGUUAAAUCCCGUCGUAGCCACCA
DNA 1: CAATCTGAATTCCGGTCTCCC
DNA 2: TGGTGGCTACGACGGGATT
B9: ACCGCUU (DNA:RNA)
RNA: B1 RNA with U25A, U26C, A27C, U28G, G29C
DNA 1: CAATCTGAATTCCGGTCTCCC
DNA 2: TGGTGGCTACGACGGGATT
B10: AGUUUAU (DNA:RNA)
RNA: B8 RNA with G25A, G27U, A28U, C30A, G31U
DNA 1: CAATCTGAATTCCGGTCTCCC
DNA 2: TGGTGGCTACGACGGGATT
B11: AUUGUGG (DNA:RNA)
RNA: B8 RNA with G25A, G26U, G27U, A28G, C30G
DNA 1: CAATCTGAATTCCGGTCTCCC
DNA 2: TGGTGGCTACGACGGGATT
B12: GUCUCCU (DNA:RNA)
RNA: B1 RNA with U25G, A27C, G29C, U30C
DNA 1: CAATCTGAATTCCGGTCTCCC
DNA 2: TGGTGGCTACGACGGGATT
B13: CUAGUUU (DNA:RNA)
RNA: B1 RNA with U25C, U28G, G29U
DNA 1: CAATCTGAATTCCGGTCTCCC
DNA 2: TGGTGGCTACGACGGGATT
B14: GAACUCA (DNA:RNA)
RNA: B8 RNA with G26A, G27A, A28C, G31A
DNA 1: CAATCTGAATTCCGGTCTCCC
DNA 2: TGGTGGCTACGACGGGATT
B15: AGUGCCU (DNA:RNA)
RNA: B8 RNA with G25A, G27U, A28G, U29C, G31U
DNA 1: CAATCTGAATTCCGGTCTCCC
DNA 2: TGGTGGCTACGACGGGATT
B16: CAGUGAC (DNA:RNA)
RNA: B1 RNA with U25C, U26A, A27G, U30A, U31C
DNA 1: CAATCTGAATTCCGGTCTCCC
DNA 2: TGGTGGCTACGACGGGATT
B17: GGUCUAA (DNA:RNA)
RNA: B8 RNA with G27U, A28C, C30A, G31A
DNA 1: CAATCTGAATTCCGGTCTCCC
DNA 2: TGGTGGCTACGACGGGATT
B18: AUAACCU (DNA:RNA)
RNA: B1 RNA with U25A, U28A, G29C, U30C
DNA 1: CAATCTGAATTCCGGTCTCCC
DNA 2: TGGTGGCTACGACGGGATT
B19: UGUAGAA (DNA:RNA)
RNA: B8 RNA with G25U, G27U, U29G, C30A, G31A
DNA 1: CAATCTGAATTCCGGTCTCCC
DNA 2: TGGTGGCTACGACGGGATT
B20: AGUAUUA (DNA:RNA)
RNA: B8 RNA with G25A, G27U, C30U, G31A
DNA 1: CAATCTGAATTCCGGTCTCCC
DNA 2: TGGTGGCTACGACGGGATT
B21: AGGUAAG (DNA:RNA)
RNA: B8 RNA with G25A, A28U, U29A, C30A
DNA 1: CAATCTGAATTCCGGTCTCCC
DNA 2: TGGTGGCTACGACGGGATT
B22: GGCUCUG (DNA:RNA)
RNA: B8 RNA with G27C, A28U, U29C, C30U
DNA 1: CAATCTGAATTCCGGTCTCCC
DNA 2: TGGTGGCTACGACGGGATT
B23: CAUACGA (DNA:RNA)
RNA: B8 RNA with G25C, G26A, G27U, U29C, C30G, G31A
DNA 1: CAATCTGAATTCCGGTCTCCC
DNA 2: TGGTGGCTACGACGGGATT
B24: UCACGAG (DNA:RNA)
RNA: B1 RNA with U26C, U28C, U30A, U31G
DNA 1: CAATCTGAATTCCGGTCTCCC
DNA 2: TGGTGGCTACGACGGGATT
B25: AUUAAUA (DNA:RNA)
RNA: B1 RNA with U25A, A27U, U28A, G29A, U31A
DNA 1: CAATCTGAATTCCGGTCTCCC
DNA 2: TGGTGGCTACGACGGGATT
B26: CUAUUUU (DNA:RNA)
RNA: B1 RNA with U25C, G29U
DNA 1: CAATCTGAATTCCGGTCTCCC
DNA 2: TGGTGGCTACGACGGGATT
B27: AACCAGC (DNA:RNA)
RNA: GGGAGACCGGAAUUCAGAUUGUCCAACCAGCUUAAAUCCCGUCGUAGCCACCA
DNA 1: CAATCTGAATTCCGGTCTCCC
DNA 2: TGGTGGCTACGACGGGATT
B28: AAUAGAG (DNA:RNA)
RNA: B27 RNA with C27U, C28A, A29G, G30A, C31G
DNA 1: CAATCTGAATTCCGGTCTCCC
DNA 2: TGGTGGCTACGACGGGATT
B29: UCGCUGC (DNA:RNA)
RNA: B27 RNA with A25U, A26C, C27G, A29U
DNA 1: CAATCTGAATTCCGGTCTCCC
DNA 2: TGGTGGCTACGACGGGATT
B30: CGCAUUC (DNA:RNA)
RNA: B8 RNA with G25C, G27C, C30U, G31C
DNA 1: CAATCTGAATTCCGGTCTCCC
DNA 2: TGGTGGCTACGACGGGATT
B31: CUAGAAU (DNA:RNA)
RNA: B1 RNA with U25C, U28G, G29A, U30A
DNA 1: CAATCTGAATTCCGGTCTCCC
DNA 2: TGGTGGCTACGACGGGATT

Biological target: T1, RBFOX1 RRM RbFoxmut (Fox-RRM*)
Assay: EMSA; HiTS-Eq, 1 nM pool, 10 min; buffer printed only for the single-RNA assays: 10 mM Tris pH 7.5, 150 mM NaCl, 3.4 mM EDTA, 0.001% NP-40, 30 C
Settings: tags: His6 N-terminal (pET28a); label: 5' 32P
Outline: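 These values rest on relative association constants, computed from read-count changes of each RNA species versus the control reaction and normalised to the cognate motif. Reads came from free RNA recovered by 8% native PAGE after purified RbFox RRM (wild type or mutant) at increasing concentrations was equilibrated for 10 min in 50 µL with 1 nM of a 5′-radiolabelled pool with 7 randomized nucleotides and DNA-annealed flanks.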

Binder | binding signal
B1 | 0.152 KA relative to UGCAUGU
B2 | 0.115 KA relative to UGCAUGU
B3 | 0.0883 KA relative to UGCAUGU
B4 | 0.0922 KA relative to UGCAUGU
B5 | 0.0858 KA relative to UGCAUGU
B6 | 0.0809 KA relative to UGCAUGU
B7 | 0.0844 KA relative to UGCAUGU
B8 | 0.369 KA relative to UGCAUGU
B9 | 0.0742 KA relative to UGCAUGU
B10 | 0.118 KA relative to UGCAUGU
B11 | 0.0919 KA relative to UGCAUGU
B12 | 0.0855 KA relative to UGCAUGU
B13 | 0.0878 KA relative to UGCAUGU
B14 | 0.0676 KA relative to UGCAUGU
B15 | 0.0968 KA relative to UGCAUGU
B16 | 0.0828 KA relative to UGCAUGU

Binder | binding signal
B17 | 0.101 KA relative to UGCAUGU
B18 | 0.0856 KA relative to UGCAUGU
B19 | 0.117 KA relative to UGCAUGU
B20 | 0.123 KA relative to UGCAUGU
B21 | 0.125 KA relative to UGCAUGU
B22 | 0.152 KA relative to UGCAUGU
B23 | 0.0763 KA relative to UGCAUGU
B24 | 0.124 KA relative to UGCAUGU
B25 | 0.14 KA relative to UGCAUGU
B26 | 0.0929 KA relative to UGCAUGU
B27 | 0.0906 KA relative to UGCAUGU
B28 | 0.135 KA relative to UGCAUGU
B29 | 0.0945 KA relative to UGCAUGU
B30 | 0.0693 KA relative to UGCAUGU
B31 | 0.0833 KA relative to UGCAUGU
